Data published in publication PMC4336329 (PLoS ONE, 2015).
The whole screen tested about 310,000 compounds, of which about 2,200 (0.71%) showed an effect of 50% or more. Effects have a minus sign here. Some of the results follow.

biological target: human ether-à-go-go-related gene (hERG) potassium channel (human, UniProt Q12809); test: primary screen, population patch clamp on CHO cells stably expressing hERG
Sequence (Q12809 whole entry, looked up): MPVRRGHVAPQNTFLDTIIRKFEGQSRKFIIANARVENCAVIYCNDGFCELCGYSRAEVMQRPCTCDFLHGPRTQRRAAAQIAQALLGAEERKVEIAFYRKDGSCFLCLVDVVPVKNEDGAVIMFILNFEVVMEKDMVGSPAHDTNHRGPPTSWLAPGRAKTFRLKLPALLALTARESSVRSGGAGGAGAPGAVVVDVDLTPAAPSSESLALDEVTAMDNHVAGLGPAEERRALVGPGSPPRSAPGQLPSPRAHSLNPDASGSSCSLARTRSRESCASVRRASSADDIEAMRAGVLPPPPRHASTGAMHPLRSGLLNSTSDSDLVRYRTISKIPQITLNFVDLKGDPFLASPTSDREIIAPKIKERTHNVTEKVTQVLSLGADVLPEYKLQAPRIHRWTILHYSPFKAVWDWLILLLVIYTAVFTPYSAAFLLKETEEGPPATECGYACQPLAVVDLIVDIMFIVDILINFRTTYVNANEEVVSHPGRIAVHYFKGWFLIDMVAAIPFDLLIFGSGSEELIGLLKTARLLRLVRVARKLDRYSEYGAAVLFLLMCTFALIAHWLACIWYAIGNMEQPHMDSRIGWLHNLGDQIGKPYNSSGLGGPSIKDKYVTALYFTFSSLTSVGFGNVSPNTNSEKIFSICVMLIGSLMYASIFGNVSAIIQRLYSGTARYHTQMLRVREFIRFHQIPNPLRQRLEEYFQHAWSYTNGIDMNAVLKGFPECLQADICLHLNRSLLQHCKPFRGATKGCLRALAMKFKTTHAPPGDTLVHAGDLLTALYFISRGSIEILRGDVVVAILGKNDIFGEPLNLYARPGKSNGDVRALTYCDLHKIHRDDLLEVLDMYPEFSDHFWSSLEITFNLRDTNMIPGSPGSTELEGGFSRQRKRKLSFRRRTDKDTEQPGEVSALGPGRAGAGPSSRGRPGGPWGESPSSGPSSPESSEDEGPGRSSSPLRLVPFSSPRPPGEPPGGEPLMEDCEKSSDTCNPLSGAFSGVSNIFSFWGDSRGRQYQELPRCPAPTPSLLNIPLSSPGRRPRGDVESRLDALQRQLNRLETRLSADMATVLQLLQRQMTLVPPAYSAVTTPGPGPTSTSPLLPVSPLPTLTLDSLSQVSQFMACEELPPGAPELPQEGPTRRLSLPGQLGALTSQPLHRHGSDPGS

First: CCOC(=O)C1CCCN(C(=O)c2cc(-c3ccc(C)cc3)nc3ccccc23)C1 (stereo not drawn)
Second: CC1CCCN(C(=O)COC(=O)Cc2c[nH]c3ccccc23)C1 (stereo not drawn)
The “hERG current change (%, negative = inhibition) at 1uM” value of the first is higher: 10.4% for the first, 10.3% for the second.

Going from `CSc1nsc(SCC(=O)Nc2c(C)n(C)n(-c3ccccc3)c2=O)n1` to `Cc1nnc(SCC(=O)N2CCN(Cc3ccccc3)CC2)s1`, the “hERG current change (%, negative = inhibition) at 1uM” value falls from 2.23% to 0.0845%.

Compared with `CN(C)C(=O)C(NC(=O)c1ccccc1)=C(Cl)Cl`, `CCN(CC)C(=O)Oc1ccccc1NC(C)=O` is higher in “hERG current change (%, negative = inhibition) at 1uM” value: -3.02% for the first, 17.6% for the second.

Going from `CC(C)Oc1ccc(CN2CCC(n3nccc3NC(=O)c3cccnc3)CC2)cc1` to `OCC1(Cc2ccccc2)CCN(Cc2ccc(-c3ccco3)cc2)CC1`, the “hERG current change (%, negative = inhibition) at 1uM” value rises from -52.6% to -8.07%.

Compared with `CC12CC3CC(C)(C1)CC(N)(C3)C2.O=[N+]([O-])O`, `CN(C)S(=O)(=O)c1ccc(NC(=O)COC(=O)CC2CC3CCC2C3)cc1` (stereo not drawn) is lower in “hERG current change (%, negative = inhibition) at 1uM” value: 5.74% for the first, 3.85% for the second.

Compared with `Cc1[nH]c2ccccc2c1C(=O)CN1C(=O)C(=O)N(C2CCCC2)C1=O`, `O=C(CSc1nnnn1C1CCCCC1)NCCc1ccccc1` is lower in “hERG current change (%, negative = inhibition) at 1uM” value: 10.6% for the first, 5.19% for the second.

Going from `Cc1ccc(S(=O)(=O)N2CCOC23CCN(S(=O)(=O)c2c(C)cc(C)cc2C)CC3)cc1` to `O=C(C1CCCC1)N1CCN(S(=O)(=O)c2ccc(Cl)cc2)CC1`, the “hERG current change (%, negative = inhibition) at 1uM” value rises from 3.94% to 18%.

Compared with `Cc1cc(Cl)ccc1OCC(O)CN1C(C)CCCC1C.Cl` (stereo not drawn), `CCC1=Nc2cc(C(=O)NCC3CCCO3)ccc2Sc2ccc(Cl)cc21` (stereo not drawn) is higher in “hERG current change (%, negative = inhibition) at 1uM” value: -46.3% for the first, 6.98% for the second.

First: Cc1cc(C)c(C#N)c(SCC(=O)Nc2ccc(S(=O)(=O)Nc3ncccn3)cc2)n1
Second: Cc1ccc(NC(=O)CCn2nc(C)cc2C)cc1
The “hERG current change (%, negative = inhibition) at 1uM” value of the first is lower: 10.9% for the first, 13.7% for the second.

First: O=C(Nc1ccccc1C(=O)O)c1cccc(NC(=O)c2ccco2)c1
Second: C=CCC(CC=C)(NC(=O)c1ccccc1C(=O)O)c1ccccc1
The “hERG current change (%, negative = inhibition) at 1uM” value of the first is higher: 15.9% for the first, 1.96% for the second.

Going from `O=c1ccc(/C=C/c2ccccc2)nn1Cc1ccc(Cl)cc1Cl` to `Cc1ncc(CO)c(CNc2ccc(Oc3ccccc3)cc2)c1O`, the “hERG current change (%, negative = inhibition) at 1uM” value rises from 3.78% to 5.5%.

First: O=C(Cc1ccc(Br)cc1)Nc1cccc(-c2cn3c(n2)SCC3)c1
Second: CC(=O)c1ccc(S(=O)(=O)Nc2cccc(-c3cn4c(n3)SCC4)c2)cc1
The “hERG current change (%, negative = inhibition) at 1uM” value of the first is higher: 12.2% for the first, 7.41% for the second.

Going from `O=C1c2ccncc2C(=O)N1c1cccc(Cl)c1` to `O=C1NC(=S)N(c2ccc(Cl)cc2)C(=O)/C1=C/N1CCN(C(=O)c2ccco2)CC1`, the “hERG current change (%, negative = inhibition) at 1uM” value rises from 6.45% to 15.4%.

Going from `CNC(=O)Nc1ccc2nc(C)sc2c1` to `CCOC(=O)N1CCN(CCC(=O)Nc2ccc(Br)c(C)c2)CC1.Cl`, the “hERG current change (%, negative = inhibition) at 1uM” value falls from 8.73% to 2.3%.

First: Cc1nc2nc(-c3cccnc3)nn2c(C)c1Cl
Second: CCc1c(C)sc(NC(=O)c2cc(-c3ccco3)on2)c1C#N
The “hERG current change (%, negative = inhibition) at 1uM” value of the first is lower: 6.68% for the first, 13.9% for the second.

Compared with `COc1cc(O)c(C(CCN2CCN(c3ccccc3)CC2)c2cc(OC)c(OC)c(OC)c2)c(OC)c1` (stereo not drawn), `COc1ccc(S(=O)(=O)N(CC(=O)NCc2ccco2)c2ccccc2)cc1OC` is lower in “hERG current change (%, negative = inhibition) at 1uM” value: 11.3% for the first, 8.42% for the second.

First: CN(C)C(=O)CCC(=O)N(C)CC1CCCN(CCc2ccc(F)cc2)C1 (stereo not drawn)
Second: CCCCn1c(N)c(N(Cc2ccccc2OC)C(=O)C(C)Oc2ccc(F)cc2)c(=O)[nH]c1=O (stereo not drawn)
The “hERG current change (%, negative = inhibition) at 1uM” value of the first is lower: -0.257% for the first, 9.78% for the second.

Going from `COC(=O)c1ccc(C(=O)OC)c(NC(=O)CN(c2ccccc2)S(=O)(=O)N(C)C)c1` to `CCCCCC(=O)NC(=S)Nc1ccccc1C(=O)OC`, the “hERG current change (%, negative = inhibition) at 1uM” value rises from 2.65% to 9.61%.

First: COc1ccc(NC(=O)Cc2c(O)c3ccccc3[nH]c2=O)cc1
Second: CCOC(=O)c1ccc(NC(=O)CSc2nnc(COc3ccccc3OC)n2CC)cc1
The “hERG current change (%, negative = inhibition) at 1uM” value of the first is lower: 0.287% for the first, 7.98% for the second.

Compared with `CN(C)c1nc(C(=O)O)nc(N2CCOCC2)n1`, `NC(=O)N1CCN(C(=O)c2ccco2)CC1` is lower in “hERG current change (%, negative = inhibition) at 1uM” value: 8.43% for the first, 2.15% for the second.

Going from `CCOC(=O)C(CC)Sc1ncnc2nc[nH]c12` (stereo not drawn) to `Cc1cccn2c(=O)nc(SCC(=O)N3CC(C)OC(C)C3)nc12` (stereo not drawn), the “hERG current change (%, negative = inhibition) at 1uM” value rises from -0.0147% to 6.96%.

First: CCCOc1ccccc1C(=O)N(Cc1cccc(Br)c1)C1CCS(=O)(=O)C1 (stereo not drawn)
Second: CCCOc1ccc(CNC(=S)Nc2ccccc2)cc1Cl
The “hERG current change (%, negative = inhibition) at 1uM” value of the first is lower: 1.89% for the first, 16.5% for the second.

First: CC(C(=O)NCC1CCCO1)N(C(=O)c1snc(C(N)=O)c1N)c1cccc(F)c1 (stereo not drawn)
Second: CS(=O)(=O)N(CC(N)=O)c1cccc(Br)c1
The “hERG current change (%, negative = inhibition) at 1uM” value of the first is lower: 3.08% for the first, 9.98% for the second.

First: CCOc1ccc(Oc2ccc(Cl)cc2NC(=O)CCNC(C)=O)cc1
Second: COc1ccc(N(CC(=O)NCCSc2ccccn2)S(=O)(=O)c2ccccc2)cc1Cl
The “hERG current change (%, negative = inhibition) at 1uM” value of the first is lower: 6.03% for the first, 11.3% for the second.

Compared with `Cc1cccc(S(=O)(=O)Nc2nc3ccccc3nc2NCc2ccc3c(c2)OCO3)c1`, `CN(C)c1cccc2c(S(=O)(=O)Nc3ccccn3)cccc12` is lower in “hERG current change (%, negative = inhibition) at 1uM” value: 18.7% for the first, 7.99% for the second.

Compared with `CCN1CCc2c(sc(NC(=S)NC(=O)c3ccco3)c2C(N)=O)C1`, `CCn1cc(C(=O)NCc2cccc(C(F)(F)F)c2)c(=O)c2ccc(C)nc21` is lower in “hERG current change (%, negative = inhibition) at 1uM” value: 15.8% for the first, 9.74% for the second.

Going from `CC(C)CCn1c(SCC(N)=O)nc2c1c(=O)n(C)c(=O)n2C` to `COc1ccc(CNC(=O)C2CCN(S(=O)(=O)N3CCCCC3)CC2)c(OC)c1`, the “hERG current change (%, negative = inhibition) at 1uM” value falls from 10.7% to 6.87%.

First: Cc1ccc(S(=O)(=O)N2C(=O)CCC2C(=O)O/N=C(\N)c2cccc([N+](=O)[O-])c2)cc1 (stereo not drawn)
Second: CCS(=O)(=O)Nc1ccc(Cc2ccncc2)cc1
The “hERG current change (%, negative = inhibition) at 1uM” value of the first is lower: -1.25% for the first, 9.28% for the second.

For `O=C(NNc1ccc(Cl)cc1)c1sccc1Cl`, the “hERG current change (%, negative = inhibition) at 1uM” value was 8.76%.
